# From the supplement of paper PMC8728848
# Some of the results follow.
# B1: CCL2 (Coprinopsis cinerea), B3GA02 (protein)
# chain: MDSPAVTLSAGNYIIYNRVLSPRGEKLALTYPGRQRTPVTVSPLDGSSEQAWILRSYDSNSNTWTISPVGSPNSQIGWGAGNVPVVLPPNNYVWTLTLTSGGYNIQDGKRTVSWSLNNATAGEEVSIGADATFSGRWVIEKV
# Legend:
# Assay in all cases: glycan array binding signal (z-score within array); higher = stronger binding
# Conditions in all cases: glycan notation: IUPAC condensed, linker removed
# Fuc(a1-2)Gal = biological target: Fuc(a1-2)Gal
# In short: (§1)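 Glycan array data came from 3228 arrays in the Consortium for Functional Glycomics database, and only arrays with an available protein sequence were kept. Glycan names were put into IUPAC-condensed notation, and columns mapping to the same glycan were averaged. The binding signal is a within-array Z-score, averaged across arrays of one protein sequence run at different concentrations or buffers and across linkers. A negative Z-score can be read as non-binding.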
# Fuc(a1-2)Gal(b1-3)GalNAc = biological target: Fuc(a1-2)Gal(b1-3)GalNAc
# In short: as §1
# [1] = biological target: Fuc(a1-2)Gal(b1-3)GalNAc(b1-3)Gal
# In short: as §1
# [2] = biological target: Fuc(a1-2)Gal(b1-3)GalNAc(b1-3)Gal(a1-4)Gal(b1-4)Glc
# In short: as §1
# [3] = biological target: Fuc(a1-2)Gal(b1-3)GalNAc(b1-4)[Neu5Ac(a2-3)]Gal(b1-4)Glc
# In short: as §1
# Fuc(a1-2)Gal(b1-3)GlcNAc = biological target: Fuc(a1-2)Gal(b1-3)GlcNAc
# In short: as §1
# [4] = biological target: Fuc(a1-2)Gal(b1-3)GlcNAc(b1-2)Man(a1-3)[Fuc(a1-2)Gal(b1-3)GlcNAc(b1-2)Man(a1-6)]Man(b1-4)GlcNAc(b1-4)GlcNAc
# In short: as §1
# [5] = biological target: Fuc(a1-2)Gal(b1-3)GlcNAc(b1-3)Gal(b1-4)Glc
# In short: as §1
# [6] = biological target: Fuc(a1-2)Gal(b1-3)GlcNAc(b1-3)[Gal(b1-4)[Fuc(a1-3)]GlcNAc(b1-6)]Gal(b1-4)Glc
# In short: as §1
# [7] = biological target: Fuc(a1-2)Gal(b1-3)[Fuc(a1-4)]GlcNAc
# In short: as §1
# [8] = biological target: Fuc(a1-2)Gal(b1-3)[Fuc(a1-4)]GlcNAc(b1-2)Man(a1-3)[Fuc(a1-2)Gal(b1-3)[Fuc(a1-4)]GlcNAc(b1-2)Man(a1-6)]Man(b1-4)GlcNAc(b1-4)GlcNAc
# In short: as §1
# Fuc(a1-2)Gal(b1-4)Glc = biological target: Fuc(a1-2)Gal(b1-4)Glc
# In short: as §1
# Fuc(a1-2)Gal(b1-4)Glc6S = biological target: Fuc(a1-2)Gal(b1-4)Glc6S
# In short: as §1
# Fuc(a1-2)Gal(b1-4)GlcNAc = biological target: Fuc(a1-2)Gal(b1-4)GlcNAc
# In short: as §1
# [9] = biological target: Fuc(a1-2)Gal(b1-4)GlcNAc(b1-2)Man(a1-3)[Fuc(a1-2)Gal(b1-4)GlcNAc(b1-2)Man(a1-6)]Man(b1-4)GlcNAc(b1-4)GlcNAc
# In short: as §1
# [10] = biological target: Fuc(a1-2)Gal(b1-4)GlcNAc(b1-3)Gal(b1-4)GlcNAc
# In short: as §1
# [11] = biological target: Fuc(a1-2)Gal(b1-4)GlcNAc(b1-3)Gal(b1-4)GlcNAc(b1-3)Gal(b1-4)GlcNAc
# In short: as §1
# [12] = biological target: Fuc(a1-2)Gal(b1-4)GlcNAc6S
# In short: as §1
# [13] = biological target: Fuc(a1-2)Gal(b1-4)[Fuc(a1-3)]GlcNAc
# In short: as §1
# [14] = biological target: Fuc(a1-2)Gal(b1-4)[Fuc(a1-3)]GlcNAc(b1-2)Man(a1-3)[Fuc(a1-2)Gal(b1-4)[Fuc(a1-3)]GlcNAc(b1-2)Man(a1-6)]Man(b1-4)GlcNAc(b1-4)GlcNAc
# In short: as §1
# [15] = biological target: Fuc(a1-2)Gal(b1-4)[Fuc(a1-3)]GlcNAc(b1-3)Gal(b1-4)[Fuc(a1-3)]GlcNAc
# In short: as §1
# [16] = biological target: Fuc(a1-2)Gal(b1-4)[Fuc(a1-3)]GlcNAc(b1-3)Gal(b1-4)[Fuc(a1-3)]GlcNAc(b1-3)Gal(b1-4)[Fuc(a1-3)]GlcNAc
# In short: as §1
# Fuc(a1-2)Gal6S(b1-4)Glc = biological target: Fuc(a1-2)Gal6S(b1-4)Glc
# In short: as §1
# [17] = biological target: Fuc(a1-2)Gal6S(b1-4)Glc6S
# In short: as §1
# [18] = biological target: Fuc(a1-2)Gal6S(b1-4)GlcNAc
# In short: as §1
# Fuc(a1-2)[Gal(a1-3)]Gal = biological target: Fuc(a1-2)[Gal(a1-3)]Gal
# In short: as §1
# [19] = biological target: Fuc(a1-2)[Gal(a1-3)]Gal(b1-3)GlcNAc
# In short: as §1
# [20] = biological target: Fuc(a1-2)[Gal(a1-3)]Gal(b1-3)GlcNAc(b1-2)Man(a1-3)[Fuc(a1-2)[Gal(a1-3)]Gal(b1-3)GlcNAc(b1-2)Man(a1-6)]Man(b1-4)GlcNAc(b1-4)GlcNAc
# In short: as §1
# [21] = biological target: Fuc(a1-2)[Gal(a1-3)]Gal(b1-4)Glc
# In short: as §1
# [22] = biological target: Fuc(a1-2)[Gal(a1-3)]Gal(b1-4)GlcNAc
# In short: as §1
# [23] = biological target: Fuc(a1-2)[Gal(a1-3)]Gal(b1-4)GlcNAc(b1-2)Man(a1-3)[Fuc(a1-2)[Gal(a1-3)]Gal(b1-4)GlcNAc(b1-2)Man(a1-6)]Man(b1-4)GlcNAc(b1-4)GlcNAc
# In short: as §1
# [24] = biological target: Fuc(a1-2)[Gal(a1-3)]Gal(b1-4)[Fuc(a1-3)]GlcNAc
# In short: as §1
# [25] = biological target: Fuc(a1-2)[Gal(a1-4)]Gal(b1-4)GlcNAc
# In short: as §1
# [26] = biological target: Fuc(a1-2)[GalNAc(a1-3)]Gal
# In short: as §1
# [27] = biological target: Fuc(a1-2)[GalNAc(a1-3)]Gal(b1-3)GlcNAc
# In short: as §1
# [28] = biological target: Fuc(a1-2)[GalNAc(a1-3)]Gal(b1-3)GlcNAc(b1-2)Man(a1-3)[Fuc(a1-2)[GalNAc(a1-3)]Gal(b1-3)GlcNAc(b1-2)Man(a1-6)]Man(b1-4)GlcNAc(b1-4)GlcNAc
# In short: as §1
# [29] = biological target: Fuc(a1-2)[GalNAc(a1-3)]Gal(b1-4)Glc
# In short: as §1
# [30] = biological target: Fuc(a1-2)[GalNAc(a1-3)]Gal(b1-4)GlcNAc
# In short: as §1
# [31] = biological target: Fuc(a1-2)[GalNAc(a1-3)]Gal(b1-4)GlcNAc(b1-2)Man(a1-3)[GalNAc(a1-3)[Fuc(a1-2)]Gal(b1-4)GlcNAc(b1-2)Man(a1-6)]Man(b1-4)GlcNAc(b1-4)GlcNAc
# In short: as §1
# [32] = biological target: Fuc(a1-2)[GalNAc(a1-3)]Gal(b1-4)GlcNAc(b1-3)Gal(b1-4)GlcNAc
# In short: as §1
# [33] = biological target: Fuc(a1-2)[GalNAc(a1-3)]Gal(b1-4)GlcNAc(b1-3)Gal(b1-4)GlcNAc(b1-3)Gal(b1-4)GlcNAc
# In short: as §1
# [34] = biological target: Fuc(a1-2)[GalNAc(a1-3)]Gal(b1-4)[Fuc(a1-3)]GlcNAc
# In short: as §1
# [35] = biological target: Fuc(a1-2)[GalNAc(a1-4)]Gal(b1-4)GlcNAc
# In short: as §1
# [36] = biological target: Fuc(a1-2)[GalNAc(b1-3)]Gal
# In short: as §1
# Fuc(a1-3)GlcNAc = biological target: Fuc(a1-3)GlcNAc
# In short: as §1
binder,measurement,setting,value
B1,glycan array binding signal (z-score),Fuc(a1-2)Gal,-0.279
same,glycan array binding signal (z-score),Fuc(a1-2)Gal(b1-3)GalNAc,-0.289
same,glycan array binding signal (z-score),[1],-0.195
same,glycan array binding signal (z-score),[2],-0.286
same,glycan array binding signal (z-score),[3],-0.286
same,glycan array binding signal (z-score),Fuc(a1-2)Gal(b1-3)GlcNAc,-0.282
same,glycan array binding signal (z-score),[4],-0.259
same,glycan array binding signal (z-score),[5],-0.282
same,glycan array binding signal (z-score),[6],1.08
same,glycan array binding signal (z-score),[7],-0.292
same,glycan array binding signal (z-score),[8],-0.067
same,glycan array binding signal (z-score),Fuc(a1-2)Gal(b1-4)Glc,-0.273
same,glycan array binding signal (z-score),Fuc(a1-2)Gal(b1-4)Glc6S,-0.29
same,glycan array binding signal (z-score),Fuc(a1-2)Gal(b1-4)GlcNAc,-0.271
same,glycan array binding signal (z-score),[9],-0.298
same,glycan array binding signal (z-score),[10],-0.298
same,glycan array binding signal (z-score),[11],-0.269
same,glycan array binding signal (z-score),[12],-0.282
same,glycan array binding signal (z-score),[13],-0.077
same,glycan array binding signal (z-score),[14],-0.037
same,glycan array binding signal (z-score),[15],-0.241
same,glycan array binding signal (z-score),[16],-0.135
same,glycan array binding signal (z-score),Fuc(a1-2)Gal6S(b1-4)Glc,-0.28
same,glycan array binding signal (z-score),[17],-0.288
same,glycan array binding signal (z-score),[18],-0.289
same,glycan array binding signal (z-score),Fuc(a1-2)[Gal(a1-3)]Gal,-0.276
same,glycan array binding signal (z-score),[19],-0.293
same,glycan array binding signal (z-score),[20],-0.251
same,glycan array binding signal (z-score),[21],-0.297
same,glycan array binding signal (z-score),[22],-0.29
same,glycan array binding signal (z-score),[23],-0.268
same,glycan array binding signal (z-score),[24],-0.275
same,glycan array binding signal (z-score),[25],-0.288
same,glycan array binding signal (z-score),[26],-0.291
same,glycan array binding signal (z-score),[27],-0.291
same,glycan array binding signal (z-score),[28],-0.251
same,glycan array binding signal (z-score),[29],-0.293
same,glycan array binding signal (z-score),[30],-0.286
same,glycan array binding signal (z-score),[31],-0.269
same,glycan array binding signal (z-score),[32],-0.273
same,glycan array binding signal (z-score),[33],-0.23
same,glycan array binding signal (z-score),[34],-0.28
same,glycan array binding signal (z-score),[35],-0.273
same,glycan array binding signal (z-score),[36],-0.266
same,glycan array binding signal (z-score),Fuc(a1-3)GlcNAc,-0.278
